Data from the BET-seq Pho4 binding data (Le et al. 2018).
Some of the results follow. The energies were worked out here from pooled read counts, against the library average; single values are noisy.

target: T1, Pho4 (S. cerevisiae) (UniProt P07270); test: relative binding free energy (BET-seq); higher = weaker binding; conditions: reference: library average
T1 sequence: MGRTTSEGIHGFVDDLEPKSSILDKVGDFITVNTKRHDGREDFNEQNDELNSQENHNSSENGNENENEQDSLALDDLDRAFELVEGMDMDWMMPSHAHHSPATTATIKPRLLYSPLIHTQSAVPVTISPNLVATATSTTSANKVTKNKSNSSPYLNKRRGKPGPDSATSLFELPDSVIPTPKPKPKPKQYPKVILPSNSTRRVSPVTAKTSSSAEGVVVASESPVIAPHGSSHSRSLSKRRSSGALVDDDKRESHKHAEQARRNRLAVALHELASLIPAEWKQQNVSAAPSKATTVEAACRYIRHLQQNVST

| Sequence | relative binding free energy [kcal/mol] |
| --- | --- |
| GTCATCACGTGTGGTA | 0.19 |
| CGGTGCACGTGGCTAG | -0.1 |
| GTAGGCACGTGTTTCT | -0.07 |
| CGAGTCACGTGGTGCT | 0.04 |
| AAGTGCACGTGAGGTG | 0.27 |
| GATTGCACGTGTGCGC | 0.09 |
| ATAGTCACGTGCGGAG | 0.1 |
| TGGTGCACGTGGATGC | -0.03 |
| GAGTGCACGTGGATAG | 0.08 |
| AGATTCACGTGTGAAT | 0.26 |
| GCTTACACGTGGTATG | 0.12 |
| GACGGCACGTGTGGCA | 0.1 |
| CGGTTCACGTGGACGG | 0.29 |
| AGTAGCACGTGATGAA | 0.08 |
| GGATGCACGTGGATGT | 0.02 |
| TTCGACACGTGGGTAT | -0.17 |
| GAGTGCACGTGTCGGT | 0.19 |
| AAAGGCACGTGGGGGA | -0.21 |
| TAGGGCACGTGGTGAT | -0.11 |
| GTGGGCACGTGAGAGC | 0.22 |
| TGAGTCACGTGTCGTA | 0.2 |
| ATGGACACGTGAAGGA | 0.22 |
| CGGGGCACGTGGAAAT | 0.18 |
| GTGGCCACGTGGAGGT | 0 |
| TTTGACACGTGCGATT | -0.1 |

| Sequence | relative binding free energy [kcal/mol] |
| --- | --- |
| GGGTGCACGTGAAGCC | 0.36 |
| TGTATCACGTGGGACG | 0 |
| CAAGGCACGTGTTGTT | -0.23 |
| GGAAGCACGTGCGGGT | -0.14 |
| TGGGTCACGTGAAATA | 0.47 |
| GTTTCCACGTGTGTTT | 0.25 |
| TTGGCCACGTGGTTGC | -0.06 |
| CTTTTCACGTGCTAGT | 0.2 |
| CGGTTCACGTGATTTA | 0.52 |
| GAATTCACGTGTATAA | 0.34 |
| ATTTTCACGTGGACGG | 0.29 |
| CTGGGCACGTGATGGA | -0.04 |
| GTACTCACGTGCGTGT | 0.15 |
| GAGGGCACGTGAGCGA | 0.07 |
| ACAGTCACGTGGAGTG | -0.06 |
| CGTGTCACGTGTTTAA | 0.03 |
| TACGGCACGTGTCTGG | -0.08 |
| CTGTACACGTGGTGAA | -0.03 |
| AGGGTCACGTGGACGC | 0.17 |
| GTGTTCACGTGGGCCA | 0.18 |
| TATTTCACGTGGGGCC | 0.39 |
| TGGCACACGTGGGTCA | -0.04 |
| AGGTGCACGTGATTTC | 0.09 |
| TGGCGCACGTGAGTGA | 0.15 |
| AATGGCACGTGGGTCT | -0.16 |

| Sequence | relative binding free energy [kcal/mol] |
| --- | --- |
| CGTGTCACGTGGATAG | 0.15 |
| AGTCGCACGTGCATGG | -0.14 |
| ATTGTCACGTGACCGG | 0.17 |
| GAATTCACGTGTGAAG | 0.42 |
| CTTGCCACGTGGCGGG | -0.17 |
| GGTCTCACGTGGAGAG | 0.2 |
| TTCTACACGTGGGGGC | 0.06 |
| CAGAGCACGTGTTAGT | 0.02 |
| AAGTTCACGTGGGCCG | 0.25 |
| TGGTACACGTGATGTC | 0.18 |
| ATAGTCACGTGATCTG | 0.13 |
| TAGCTCACGTGGTAGG | 0.24 |
| ACGGTCACGTGGCAGG | 0 |
| AGCGACACGTGTGGGG | 0.07 |
| GTTGCCACGTGGGAGT | -0.25 |
| TGGGTCACGTGGCTCT | 0.13 |
| AGATACACGTGGAGGT | 0.06 |
| CGTGGCACGTGGGTGT | -0.24 |
| ACGGGCACGTGTTGGG | -0.05 |
| GAATTCACGTGGATAT | 0.29 |
| GGTGTCACGTGTTTGT | 0.17 |
| ATAAGCACGTGTGTCT | 0.03 |
| AGATTCACGTGAGGAT | 0.33 |
| GATGACACGTGGGGTC | 0 |
| GGGCTCACGTGTTGCG | 0.26 |

| Sequence | relative binding free energy [kcal/mol] |
| --- | --- |
| CTGTTCACGTGGCTTT | 0.18 |
| GTTAACACGTGGATGT | -0.02 |
| CAGGGCACGTGTGGTA | -0.08 |
| AGTCTCACGTGGCGGT | 0.13 |
| CATGTCACGTGTGGTG | 0.04 |
| CGTAGCACGTGGGTAG | -0.24 |
| TGCTTCACGTGGGTTG | 0.13 |
| TGCGACACGTGGGGTC | -0.09 |
| CTTGTCACGTGTTGGA | 0.13 |
| ATGAGCACGTGGTGCA | -0.24 |
| TTAACCACGTGGTGTA | -0.08 |
| GAGTACACGTGTTGTT | 0 |
| TGTAGCACGTGGGGCC | -0.19 |
| ATGGACACGTGCAGGT | -0.02 |
| TGTTGCACGTGTTTGG | 0.03 |
| TTTCTCACGTGGAGAG | 0.33 |
| AAAGTCACGTGATAGT | 0.16 |
| TAAATCACGTGGTGAG | 0.09 |
| TCAGGCACGTGAGGTA | 0.28 |
| CATGTCACGTGTTATA | 0.17 |
| ATTTTCACGTGGCTTG | 0.28 |
| CTATGCACGTGAGTGT | 0.06 |
| GGAGGCACGTGGCGGG | -0.09 |
| CTAGTCACGTGTGTCG | 0.13 |
| GGTATCACGTGTGTAA | 0.15 |

| Sequence | relative binding free energy [kcal/mol] |
| --- | --- |
| CTTCACACGTGGTGTT | 0.05 |
| TGATGCACGTGAGGTA | 0.15 |
| AGTTTCACGTGCATTT | 0.31 |
| GTAGTCACGTGCTCGG | 0.01 |
| GATGTCACGTGTATTT | 0.23 |
| CATGTCACGTGGAGGA | 0.02 |
| GTTAACACGTGAAGGA | 0.24 |
| AAGAGCACGTGTGATG | -0.02 |
| GTTAACACGTGGCTGA | 0.09 |
| TGACTCACGTGTATTT | 0.09 |
| GTTGTCACGTGCACGG | 0.1 |
| ATTGACACGTGATGGA | 0.14 |
| AGGGTCACGTGATCTA | 0.43 |
| AATTTCACGTGGATTG | 0.17 |
| TTCTTCACGTGGTCGT | 0.14 |
| TGATGCACGTGAAGGT | 0.13 |
| AGGGTCACGTGGAATT | 0.12 |
| GATATCACGTGTGAAG | 0.2 |
| ATGCTCACGTGTATGT | 0.12 |
| GTTGGCACGTGATTTG | 0.09 |
| GGGACCACGTGTTGAG | 0.13 |
| ATGCGCACGTGAGTTA | 0.15 |
| TGTTTCACGTGTGCAG | 0.34 |
| TATTTCACGTGCGGTT | 0.18 |
| GACTGCACGTGGGGTG | -0.15 |

| Sequence | relative binding free energy [kcal/mol] |
| --- | --- |
| GGTCCCACGTGTTTGG | -0.01 |
| AGCAGCACGTGTGTAG | 0 |
| TTACTCACGTGTAGGA | 0.16 |
| GGCGTCACGTGGGTAG | 0.07 |
| TCGTACACGTGTGTTG | -0.03 |
| CGGGGCACGTGTTTAT | -0.12 |
| GCTTTCACGTGGTAGA | 0.19 |
| GTTTGCACGTGTATCA | 0.18 |
| TATATCACGTGGGCAT | -0.1 |
| ATAATCACGTGAGAGT | 0.29 |
| GTTTACACGTGCGTTT | 0.21 |
| TATTTCACGTGTCGTA | 0.29 |
| GGGTGCACGTGATCGG | 0.11 |
| TTTTGCACGTGATCGT | 0.06 |
| TGGCGCACGTGTAAGG | 0.07 |
| GGTCGCACGTGGGGGT | -0.18 |
| CGGTGCACGTGGGGGC | -0.14 |
| TCGGGCACGTGTCTTT | -0.04 |
| GGACTCACGTGAGGTA | 0.43 |
| ATGTACACGTGCTGGG | 0.01 |
| TTAGGCACGTGCCAGT | -0.12 |
